Assay results from the supplement of paper PMC4604168 (melanoma cell lines).
Some of the results follow. Repeats are few or missing, and single values can be far off.

system: COLO829; experiment: cell count relative to DMSO control; melanoma cells; higher = more viable cells; details: library dose: low library concentration; 72 h
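Also: cell number obtained by counting DAPI-stained nuclei in high-throughput microscope images with image analysis software, screen run in 1,536-well plates.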

Compound | cell count [%]
C[C@]12O[C@H](C[C@]1(O)CO)n1c3ccccc3c3c4c(c5c6ccccc6n2c5c31)CNC4=O [Lestaurtinib] + CNC(=O)c1cc(Oc2ccc(NC(=O)Nc3ccc(Cl)c(C(F)(F)F)c3)cc2)ccn1 [sorafenib] (first compound 0.004 µM, partner dose 0.4 µM) | 114
N.N.[Cl][Pt][Cl] [cisplatin] + CO[C@H]1C[C@@H]2CC[C@@H](C)[C@@](O)(O2)C(=O)C(=O)N2CCCC[C@H]2C(=O)O[C@H]([C@H](C)C[C@@H]2CC[C@@H](OCCO)[C@H](OC)C2)CC(=O)[C@H](C)/C=C(\C)[C@@H](O)[C@@H](OC)C(=O)[C@H](C)C[C@H](C)/C=C/C=C/C=C/1C [everolimus] (first compound 1.6 µM, partner dose 0.02 µM) | 76.4
C[C@]12O[C@H](C[C@]1(O)CO)n1c3ccccc3c3c4c(c5c6ccccc6n2c5c31)CNC4=O [Lestaurtinib] + C=CCNC1=C2C[C@@H](C)C[C@H](OC)[C@H](O)[C@@H](C)/C=C(\C)[C@H](OC(N)=O)[C@@H](OC)/C=C\C=C(/C)C(=O)NC(=CC1=O)C2=O [Tanespimycin] (first compound 0.004 µM, partner dose 0.002 µM) | 84
C[C@]12O[C@H](C[C@]1(O)CO)n1c3ccccc3c3c4c(c5c6ccccc6n2c5c31)CNC4=O [Lestaurtinib] + COc1ccc(Cl)c(Nc2nc3ccccc3nc2NS(=O)(=O)c2cccc(NC(=O)C(C)(C)N)c2)c1 [XL147] (first compound 0.004 µM, partner dose 0.8 µM) | 90.9
